Results on 54 compounds are retold here after article PMC4336329 (PLoS ONE, 2015).

Hit rate of the full screen: of about 310,000 compounds, about 14,000 (4.5%) showed an effect of 50% or more. Effects have a minus sign here. Some of the results follow.
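Note: peak tail current of the secondary pulse compared with the same well before compound.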

The assay deals with human ether-à-go-go-related gene (hERG) potassium channel (human, UniProt Q12809). As to the kind of experiment: primary screen, population patch clamp on CHO cells stably expressing hERG.
human ether-à-go-go-related gene (hERG) potassium channel, sequence (Q12809 whole entry, looked up): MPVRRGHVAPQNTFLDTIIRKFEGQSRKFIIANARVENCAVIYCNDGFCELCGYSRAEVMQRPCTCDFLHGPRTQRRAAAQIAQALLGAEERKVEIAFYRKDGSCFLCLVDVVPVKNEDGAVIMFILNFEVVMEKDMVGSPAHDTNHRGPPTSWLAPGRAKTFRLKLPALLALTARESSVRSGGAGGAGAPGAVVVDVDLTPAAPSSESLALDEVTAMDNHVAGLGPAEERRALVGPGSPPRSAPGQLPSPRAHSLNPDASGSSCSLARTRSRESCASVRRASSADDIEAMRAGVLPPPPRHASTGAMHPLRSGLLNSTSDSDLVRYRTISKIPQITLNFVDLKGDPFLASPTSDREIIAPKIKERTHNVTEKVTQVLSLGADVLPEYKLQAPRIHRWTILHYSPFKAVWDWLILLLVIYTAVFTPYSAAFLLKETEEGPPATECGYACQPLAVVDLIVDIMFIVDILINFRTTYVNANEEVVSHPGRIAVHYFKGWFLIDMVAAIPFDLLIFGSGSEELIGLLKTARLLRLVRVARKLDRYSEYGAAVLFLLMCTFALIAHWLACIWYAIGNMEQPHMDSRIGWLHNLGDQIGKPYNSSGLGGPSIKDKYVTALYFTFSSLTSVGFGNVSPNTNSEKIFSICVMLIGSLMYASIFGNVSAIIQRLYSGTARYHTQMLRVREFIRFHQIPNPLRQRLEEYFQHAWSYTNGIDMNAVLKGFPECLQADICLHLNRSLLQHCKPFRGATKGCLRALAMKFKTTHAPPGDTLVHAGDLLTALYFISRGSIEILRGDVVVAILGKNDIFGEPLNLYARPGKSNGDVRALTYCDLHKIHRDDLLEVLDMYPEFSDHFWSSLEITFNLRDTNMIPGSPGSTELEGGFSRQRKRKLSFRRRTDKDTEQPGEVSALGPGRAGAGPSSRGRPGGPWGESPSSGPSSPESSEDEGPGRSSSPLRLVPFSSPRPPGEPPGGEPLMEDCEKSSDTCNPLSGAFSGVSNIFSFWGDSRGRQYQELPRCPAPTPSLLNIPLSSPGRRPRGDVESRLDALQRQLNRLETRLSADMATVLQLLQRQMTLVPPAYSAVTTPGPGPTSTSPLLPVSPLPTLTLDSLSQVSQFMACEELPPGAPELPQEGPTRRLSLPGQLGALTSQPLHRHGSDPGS
`CCCC(=O)OCC[N+](C)(C)C.[Cl-]`: the “hERG current change (%, negative = inhibition) at 10uM” value is reported as 6.5%.

For `Cc1c(Cl)cccc1NC(=O)c1ccc(OCC(=O)NCc2ccccc2)cc1`, the “hERG current change (%, negative = inhibition) at 10uM” value was 15.5%.

Regarding `Cc1c(Nc2cc(N3CCCCCC3)c3nonc3c2[N+](=O)[O-])c(=O)n(-c2ccccc2)n1C`, the “hERG current change (%, negative = inhibition) at 10uM” value is recorded as -31.1%.

Turning to `Cc1cc(Nc2cccc(Cl)c2)c2ccccc2n1`, the “hERG current change (%, negative = inhibition) at 10uM” value was -68.8%.

Consider `CC(NCc1cccc(OCc2ccccc2)c1)C(O)c1ccccc1.Cl` (stereo not drawn), for which the “hERG current change (%, negative = inhibition) at 10uM” value is -50.9%.

As for `CCOC(=O)Cc1nc2nc(C)cc(C)n2n1`, the “hERG current change (%, negative = inhibition) at 10uM” value was 3.67%.

`Cc1ccc(OCC(O)CN2CCN(Cc3ccc4c(c3)OCO4)CC2)cc1C.Cl` (stereo not drawn): the “hERG current change (%, negative = inhibition) at 10uM” value was -61.1%.

In the case of `CC(C)(C)c1ccc(S(=O)(=O)NCC(=O)Nc2sc3c(c2C(N)=O)CCCC3)cc1`, the “hERG current change (%, negative = inhibition) at 10uM” value is listed as 19.2%.

For `CC(NC(=O)c1ccc(Cn2cc([N+](=O)[O-])cn2)cc1)c1ccccc1` (stereo not drawn), the “hERG current change (%, negative = inhibition) at 10uM” value is given as -13.5%.

Regarding `COc1ccc(Cl)cc1NC(=O)CN(C)C(=O)c1ccc(C)s1`, the “hERG current change (%, negative = inhibition) at 10uM” value is -5.14%.

In the case of `Cc1nc(N2CCCCC2)c2c(C)c(C(=O)Nc3ccccc3C(F)(F)F)sc2n1`, the “hERG current change (%, negative = inhibition) at 10uM” value came to 4.43%.

As to `CC(=O)NC(=S)NNC(=O)COc1ccc([N+](=O)[O-])cc1`, the “hERG current change (%, negative = inhibition) at 10uM” value is recorded as 10%.

With `COc1ccc(C(CC(=O)Nc2ncccc2C)N2Cc3ccccc3C2=O)cc1` (stereo not drawn), the “hERG current change (%, negative = inhibition) at 10uM” value is given as -1.3%.

As to `O=C1NC(=O)C(CC(=O)N(Cc2ccco2)C2(C(=O)NC3CCCCC3)CCCCC2)N1` (stereo not drawn), the “hERG current change (%, negative = inhibition) at 10uM” value is reported as -0.128%.

Take `O=C(NNC(=O)c1cc(Cl)ccc1O)c1cccs1`: the “hERG current change (%, negative = inhibition) at 10uM” value stood at 18.4%.

As for `COc1cccc(C2=NOC(C(=O)N3CCN(C(=O)c4ccco4)CC3)C2)c1` (stereo not drawn), the “hERG current change (%, negative = inhibition) at 10uM” value is recorded as -40.1%.

On to `Cc1ccc(NC(=O)c2ccc(S(=O)(=O)NCc3cccnc3)cc2)cc1C`, for which the “hERG current change (%, negative = inhibition) at 10uM” value is -18.7%.

Take `CCC(=O)NNc1ncnc2c1cnn2-c1ccccc1`: the “hERG current change (%, negative = inhibition) at 10uM” value turned out to be 28.9%.

For `COCCNc1nc(Cl)c(C#N)s1`, the “hERG current change (%, negative = inhibition) at 10uM” value worked out at 9.02%.

As to `CCOC(=O)c1c(NC(=S)Nc2ccccc2)sc2c1CCN(CCc1ccccc1)C2`, the “hERG current change (%, negative = inhibition) at 10uM” value is reported as -64.1%.

Consider `O=C(Nc1ccc(S(=O)(=O)N2CCCC2)cc1)C1CC(=O)N(CCc2ccc(F)cc2)C1` (stereo not drawn), for which the “hERG current change (%, negative = inhibition) at 10uM” value is listed as 0.572%.

Regarding `Cn1c(=O)c2c(nc(CN3CCN(Cc4ccccc4)CC3)n2Cc2ccc(F)cc2)n(C)c1=O`, the “hERG current change (%, negative = inhibition) at 10uM” value was -67.2%.

In the case of `O=C1NC(Nc2nc3ccccc3s2)(C(F)(F)F)C(=O)N1C1CCCCC1` (stereo not drawn), the “hERG current change (%, negative = inhibition) at 10uM” value is listed as -6.17%.

With `CC(OC(=O)c1cccc([N+](=O)[O-])c1)C(=O)N1CCc2ccccc21` (stereo not drawn), the “hERG current change (%, negative = inhibition) at 10uM” value was -24%.

Consider `Cc1nn(-c2ccccc2)c(Cl)c1C(=O)Nc1nnc(C2CCCC2)s1`, for which the “hERG current change (%, negative = inhibition) at 10uM” value is -4.98%.

For the compound `C/C(CC(=O)NC(C)(C)C)=N\NC(=O)c1ccccc1N`, the “hERG current change (%, negative = inhibition) at 10uM” value was found to be 4.06%.

For `Cc1nn(C)cc1/C=C1\CCC/C(=C\c2cn(C)nc2C)C1=O`, the “hERG current change (%, negative = inhibition) at 10uM” value stood at 10.5%.

Regarding `O=C(O)CC12CC3CC(C1)CC(n1ncc(NCc4ccc5c(c4)OCO5)c(Cl)c1=O)(C3)C2`, the “hERG current change (%, negative = inhibition) at 10uM” value came to 13.8%.

In the case of `CCc1sc(C(=O)NCc2ccccc2)cc1C`, the “hERG current change (%, negative = inhibition) at 10uM” value is given as -9.06%.

In the case of `CCN(CC)S(=O)(=O)c1ccc(NC(=O)C2CCCN(C(=O)c3ccc(Cl)cc3)C2)cc1` (stereo not drawn), the “hERG current change (%, negative = inhibition) at 10uM” value was determined as 4.37%.

For the compound `O=C(N/N=C/c1ccc(-c2ccc(Cl)c(C(=O)O)c2)o1)c1cc2c(ccc3ccccc32)o1`, the “hERG current change (%, negative = inhibition) at 10uM” value was 9.63%.

Take `COc1cc(/C=N/Nc2ccc(Cl)c(C(=O)O)c2)ccc1OCC(=O)N1C(C)CCCC1C` (stereo not drawn): the “hERG current change (%, negative = inhibition) at 10uM” value was found to be 16.5%.

As for `CCOC(=O)c1c(-c2ccc(C)cc2)csc1NC(=O)c1ccc(N2C(=O)CCC2=O)cc1`, the “hERG current change (%, negative = inhibition) at 10uM” value is listed as -0.372%.

For the compound `CNC(=O)c1ccc(Nc2nnc(C)c3ccccc23)cc1`, the “hERG current change (%, negative = inhibition) at 10uM” value amounted to 4.12%.

In the case of `COc1ccc(C(=O)O)cc1NCc1cccnc1`, the “hERG current change (%, negative = inhibition) at 10uM” value was found to be 21.8%.

As to `CC(C)NS(=O)(=O)c1ccc(OCC(=O)Nc2cccc3ccccc23)cc1`, the “hERG current change (%, negative = inhibition) at 10uM” value is 1.75%.

`CCOCCCNC(=O)c1c(N)n(-c2ccc(S(N)(=O)=O)cc2)c2nc3ccccc3nc12`: the “hERG current change (%, negative = inhibition) at 10uM” value stood at 9.67%.

Regarding `NC(=O)c1ncc(C(F)(F)F)cc1Oc1ccc(F)cc1`, the “hERG current change (%, negative = inhibition) at 10uM” value is 11%.

For the compound `CC(=O)Nc1ccc(S(=O)(=O)Oc2ccc(/C=C3\SC(N)=NC3=O)cc2)cc1`, the “hERG current change (%, negative = inhibition) at 10uM” value is given as 27%.

Take `O=C(NC(=S)Nc1ccc(CN2CCCCC2)cc1)c1cccc(OCc2ccccc2)c1`: the “hERG current change (%, negative = inhibition) at 10uM” value is reported as -5.83%.

For the compound `CCc1cc2c(Sc3nc4ccccc4s3)ncnc2s1`, the “hERG current change (%, negative = inhibition) at 10uM” value turned out to be 16.9%.

As for `O=C(CN1c2cccc3cccc(c23)S1(=O)=O)Nc1ccc(S(=O)(=O)N2CCOCC2)cc1`, the “hERG current change (%, negative = inhibition) at 10uM” value is 17%.

For `COCc1nnc(NC(=O)CSc2ccc(C)cc2)s1`, the “hERG current change (%, negative = inhibition) at 10uM” value came out at 12.9%.

On to `Cc1ccc([N+](=O)[O-])cc1NC(=O)CN1CCCCC1`, for which the “hERG current change (%, negative = inhibition) at 10uM” value is on record as -11.7%.

With `COc1ccccc1NC(=S)N(Cc1ccco1)Cc1cc2cc(C)ccc2[nH]c1=O`, the “hERG current change (%, negative = inhibition) at 10uM” value is reported as 3.67%.

As to `CCOc1ccc(C(=O)NCCC(=O)NCCCC(=O)O)cc1`, the “hERG current change (%, negative = inhibition) at 10uM” value is given as 6.08%.

As to `CCOC(=O)C1(Cc2cccc(OC)c2)CCN(Cc2ccon2)CC1`, the “hERG current change (%, negative = inhibition) at 10uM” value is on record as 1.68%.

As for `COc1ccccc1NC(=O)CCc1nc(-c2ccccc2F)no1`, the “hERG current change (%, negative = inhibition) at 10uM” value is recorded as -4.66%.

For `Nc1nonc1-n1nnc(C(=O)N/N=C/c2cc(Br)ccc2O)c1CNc1ccccc1`, the “hERG current change (%, negative = inhibition) at 10uM” value is 20.7%.

`CN(C)c1ccc(-n2cccc2/C=C2/SC(=Nc3ccc(F)cc3)NC2=O)cc1`: the “hERG current change (%, negative = inhibition) at 10uM” value was 11.3%.

In the case of `CCOc1ccc(N2CC(C(=O)NCCc3c[nH]c4ccc(C)cc34)CC2=O)cc1` (stereo not drawn), the “hERG current change (%, negative = inhibition) at 10uM” value is -36.5%.

Consider `Cc1ccc(C(=O)N/C(=C/c2cccs2)C(=O)NCCCn2ccnc2)cc1`, for which the “hERG current change (%, negative = inhibition) at 10uM” value is reported as -71.9%.

Regarding `COc1cccc(CN2CCCCC2c2cccnc2)c1` (stereo not drawn), the “hERG current change (%, negative = inhibition) at 10uM” value stood at 3.01%.

Turning to `CCC(SC1=NCCS1)C(=O)Nc1ccc(S(N)(=O)=O)cc1` (stereo not drawn), the “hERG current change (%, negative = inhibition) at 10uM” value is on record as -1.65%.
